A short description of the assay: FACS staining using DOTA-FITC: recruitment of Pb-DOTA-FITC to MKN-45 cells by SPLIT antibodies. The assay is classed as binding. The note with it: antibodies 10 μg/mL, separate or combined, FIG. 24. On the procedure: MKN-45 cells were detached from the culture bottle using Trypsin and were counted using a Casy cell counter. After pelleting at 4° C., 300 g the cells were resuspended in FACS Buffer (2.5% FCS in PBS), adjusted to 2.0E+06 cells/mL dispensed to 96-well PP V-bottom-Platte (25 μL/well=5.0E+04Zellen/well).
The CEA specific SPLIT antibodies (P1AF0712 or P1AF0713respectively) were adjusted to 40 μg/mL in FACS buffer, resulting in a final concentration of 10 μg/mL. Both antibodies were added to the cells either combined or separated and followed by buffer and incubated at 4° C. for 1 h. Subsequently, Pb-DOTA labeled with FITC was added to the cells in equimolar ratio to the antibodies and incubated for 1 h at 4° C. The cells were then washed twice in FACS buffer and resuspended in 70 μl/well FACS buffer for measurement using a FACS Canto (BD, Pharmingen). […] Only a combination of both SPLIT halves was able to recruit Pb-DOTAM-FITC to the target cells (FIG. 24).
EC50 was determined for the SPLIT antibodies using either secondary antibody based detection, (488, top panel) or Pb-DOTA-FITC (DOTA-FITC, bottom panel)

B1: P1AF0713: CEA CH1A1A SPLIT antibody with DOTA-VH-AST; SEQ ID NO: 100, 101, light chain 103 (antibody)
heavy 1: QVQLVQSGAEVKKPGASVKVSCKASGYTFTEFGMNWVRQAPGQGLEWMGWINTKTGEATYVEEFKGRVTFTTDTSTSTAYMELRSLRSDDTAVYYCARWDFAYYVEAMDYWGQGTTVTVSSASTKGPSVFPLAPSSKSTSGGTAALGCLVKDYFPEPVTVSWNSGALTSGVHTFPAVLQSSGLYSLSSVVTVPSSSLGTQTYICNVNHKPSNTKVDKKVEPKSCDKTHTCPPCPAPEAAGGPSVFLFPPKPKDTLMISRTPEVTCVVVDVSHEDPEVKFNWYVDGVEVHNAKTKPREEQYNSTYRVVSVLTVLHQDWLNGKEYKCKVSNKALGAPIEKTISKAKGQPREPQVCTLPPSRDELTKNQVSLSCAVKGFYPSDIAVEWESNGQPENNYKTTPPVLDSDGSFFLVSKLTVDKSRWQQGNVFSCSVMHEALHNHYTQKSLSLSPG
heavy 2: QVQLVQSGAEVKKPGASVKVSCKASGYTFTEFGMNWVRQAPGQGLEWMGWINTKTGEATYVEEFKGRVTFTTDTSTSTAYMELRSLRSDDTAVYYCARWDFAYYVEAMDYWGQGTTVTVSSASTKGPSVFPLAPSSKSTSGGTAALGCLVKDYFPEPVTVSWNSGALTSGVHTFPAVLQSSGLYSLSSVVTVPSSSLGTQTYICNVNHKPSNTKVDKKV[human IgG1 Fc with changes not listed]GGGGSGGGGSGGGGSGGGGSHVKLQESGPGLVQPSQSLSLTCTVSGFSLTDYGVHWVRQSPGKGLEWLGVIWSGGGTAYNTALISRLNIYRDNSKNQVFLEMNSLQAEDTAMYYCARRGSYPYNYFDAWGQGTTVTVSSAST
light: DIQMTQSPSSLSASVGDRVTITCKASAAVGTYVAWYQQKPGKAPKLLIYSASYRKRGVPSRFSGSGSGTDFTLTISSLQPEDFATYYCHQYYTYPLFTFGQGTKLEIKRTVAAPSVFIFPPSDEQLKSGTASVVCLLNNFYPREAKVQWKVDNALQSGNSQESVTEQDSKDSTYSLSSTLTLSKADYEKHKVYACEVTHQGLSSPVTKSFNRGEC
On to B1, for which the “fluorescence signal of Pb-DOTA-FITC on MKN-45 cells” value was “neither of the SPLIT halves was giving rise to a fluorescence signal”.

Source of the values: patent publication US20240173442A1, “COMBINATION THERAPY” (Hoffmann-La Roche Inc., priority 2021, published 2024).
